# Source: the supplement of paper PMC7826260
# The other results are listed elsewhere or left out. Each Rep nickase domain was tested in vitro on the same pool of single strands for 1 h at 37 °C with 3 µM enzyme; only the middle of the 90-letter strands is printed. Uncut reads are compared with the no-enzyme pool on a log2 scale; more negative means more cut, near 0 not cut, and no call is made. Because reads are shares of a total, they shift together; where an enzyme cuts many sequences, the uncut ones exceed 0.
# Key:
# Test in all cases: uncleaved DNA left, log2 of reads against the no-enzyme library (log2 ratio); higher = less cleavage (more negative = more Rep cleavage of the k-mer); sequences stand for … in CTCGTCCG…ACCGGAGA
# [1] = system: T1, Rep nickase domain of Muscovy duck circovirus
# T1 sequence (residues 1-111, tag not shown): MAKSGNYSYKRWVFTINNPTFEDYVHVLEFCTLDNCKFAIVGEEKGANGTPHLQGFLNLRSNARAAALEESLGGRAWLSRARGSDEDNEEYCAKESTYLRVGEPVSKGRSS
# Experimental: (§1)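 A pool of 90-nt single-stranded DNAs with seven random bases just before the constant AC of the nick site (name = the seven bases) was cut by 3 µM recombinant His6-SUMO-tagged Rep nickase domain (300 nM DNA, 50 mM HEPES pH 8.0, 50 mM NaCl, 1 mM MnCl2, 1 h, 37 °C, three replicates). Uncut DNA was amplified and sequenced.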
# [2] = system: T2, Rep nickase domain of banana bunchy top virus
# T2 sequence (residues 1-94, tag not shown): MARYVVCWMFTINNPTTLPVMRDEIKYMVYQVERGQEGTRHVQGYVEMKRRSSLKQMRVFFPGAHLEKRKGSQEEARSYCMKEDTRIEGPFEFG
# Experimental: as §1
# [3] = system: T3, Rep nickase domain of cabbage leaf curl virus
# T3 sequence (residues 1-116, tag not shown): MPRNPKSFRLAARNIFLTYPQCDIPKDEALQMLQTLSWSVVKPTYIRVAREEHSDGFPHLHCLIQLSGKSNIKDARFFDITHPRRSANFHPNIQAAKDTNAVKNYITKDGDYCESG
# Experimental: as §1
# [4] = system: T4, Rep nickase domain of chickpea chlorotic dwarf virus
# T4 sequence (residues 1-124, tag not shown): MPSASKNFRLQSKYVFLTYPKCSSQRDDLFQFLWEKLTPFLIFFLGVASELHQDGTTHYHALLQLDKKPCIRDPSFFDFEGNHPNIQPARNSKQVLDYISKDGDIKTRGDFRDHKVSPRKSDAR
# Experimental: as §1
# [5] = system: T5, Rep nickase domain of faba bean necrotic yellows virus
# T5 sequence (residues 1-98, tag not shown): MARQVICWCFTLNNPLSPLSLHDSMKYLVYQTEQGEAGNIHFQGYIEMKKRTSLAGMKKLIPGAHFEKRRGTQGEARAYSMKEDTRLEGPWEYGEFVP
# Experimental: as §1
# [6] = system: T6, Rep nickase domain of maize striate mosaic virus
# T6 sequence (residues 1-117, tag not shown): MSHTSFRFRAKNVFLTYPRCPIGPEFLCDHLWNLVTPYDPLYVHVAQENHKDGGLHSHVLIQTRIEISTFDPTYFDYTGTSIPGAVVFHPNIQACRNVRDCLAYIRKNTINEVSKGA
# Experimental: as §1
# [7] = system: T7, Rep nickase domain of porcine circovirus 2
# T7 sequence (residues 2-116, tag not shown): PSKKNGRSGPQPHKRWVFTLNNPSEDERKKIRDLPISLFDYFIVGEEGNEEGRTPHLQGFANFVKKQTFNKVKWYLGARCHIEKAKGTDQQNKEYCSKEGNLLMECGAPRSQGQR
# Experimental: as §1
# [8] = system: T8, Rep nickase domain of tomato golden mosaic virus
# T8 sequence (residues 1-124, tag not shown): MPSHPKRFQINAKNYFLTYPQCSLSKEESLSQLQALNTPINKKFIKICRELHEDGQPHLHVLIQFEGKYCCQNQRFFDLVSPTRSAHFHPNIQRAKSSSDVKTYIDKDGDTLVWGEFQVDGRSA
# Experimental: as §1
# [9] = system: T9, Rep nickase domain of tomato yellow leaf curl virus
# T9 sequence (residues 1-136, tag not shown): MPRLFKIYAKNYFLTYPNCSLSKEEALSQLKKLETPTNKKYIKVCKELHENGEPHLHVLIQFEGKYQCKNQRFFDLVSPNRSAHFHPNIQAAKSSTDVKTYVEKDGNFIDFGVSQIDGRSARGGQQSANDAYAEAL
# Experimental: as §1
# [10] = system: T10, Rep nickase domain of wheat dwarf virus
# T10 sequence (residues 1-137, tag not shown): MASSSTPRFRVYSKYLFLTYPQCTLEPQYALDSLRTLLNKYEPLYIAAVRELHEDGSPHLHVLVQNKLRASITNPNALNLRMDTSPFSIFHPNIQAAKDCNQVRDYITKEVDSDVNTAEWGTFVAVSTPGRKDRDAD
# Experimental: as §1
Sequence,uncleaved DNA left (log2) [1],uncleaved DNA left (log2) [2],uncleaved DNA left (log2) [3],uncleaved DNA left (log2) [4],uncleaved DNA left (log2) [5],uncleaved DNA left (log2) [6],uncleaved DNA left (log2) [7],uncleaved DNA left (log2) [8],uncleaved DNA left (log2) [9],uncleaved DNA left (log2) [10]
TGTGTAA,0.0853,-0.047,0.17,0.384,0.0667,1.38,0.0694,0.114,0.00188,0.0224
TCAGTGT,0.0955,-0.0434,-0.0717,-0.103,-0.0626,-0.187,0.11,-0.0425,-0.0313,-0.0809
GGTTAGA,0.0728,0.117,0.458,1.11,0.045,1.5,0.199,0.0798,0.0403,0.19
TCACTAT,-0.159,-0.0218,-0.0763,-1.61,-0.0475,-0.676,-0.161,-0.1,-0.0572,-0.181
TACACCG,-0.087,-0.184,-0.886,-0.699,-0.0392,-1.07,-0.00193,-0.19,-0.181,-0.134
GCCAAAC,0.000633,0.0506,0.0473,0.43,0.102,-0.0999,0.159,0.0401,0.0464,0.0638
GTCAAAA,0.176,0.0948,0.331,0.959,-0.0029,1.72,0.0913,0.184,0.0271,0.164
AATACTA,-0.044,-0.0627,-0.259,-2.65,0.05,-0.605,-0.207,0.0337,-0.0696,-0.013
CGCTCGT,-0.0492,0.011,0.803,1.7,-0.0639,0.973,-0.163,-0.0809,-0.00517,-0.0834
GGGGTGA,0.00217,0.142,0.818,1.81,0.0534,2.18,0.251,0.0764,0.0949,0.207
ATACGTG,-0.0245,-0.0153,-0.703,-0.809,0.0134,-1.16,0.188,0.0502,0.00351,-0.119
AATGTTG,0.00494,-0.074,0.122,0.275,0.0255,0.0205,0.217,0.00523,0.044,0.0629
AGTTATT,-3.5,-3.91,-2.71,-2.75,-2.94,-0.332,-4.45,-0.794,0.0762,-2.3
ACTGCGC,-0.00946,-0.0405,-0.465,0.226,0.108,-0.501,0.0962,0.0269,0.0221,0.0231
TCATCCC,-0.202,-0.114,0.00943,-0.132,-0.0565,-0.212,-0.0483,-0.0545,-0.0791,-0.0719
CGATTCG,-0.149,-0.0933,-0.815,-0.468,-0.000858,-0.887,0.218,-0.2,0.125,-0.046
AACGTGA,-0.186,-0.1,-0.178,-0.64,-0.0476,-0.694,0.0139,-0.0726,-0.0543,-0.0754
AATAAAC,0.0315,-0.0421,-0.0123,-0.433,0.0865,-0.77,0.109,-0.00459,-0.0585,-0.0189
AGCGTTA,-0.0499,0.0512,-0.071,-0.0201,0.0275,0.652,-1.01,0.0421,0.0667,0.0381
TTTGTAC,-0.0781,-0.0673,-0.0446,-0.606,-0.0785,-0.667,-0.114,-0.0807,-0.034,-0.0319

Sequence,uncleaved DNA left (log2) [1],uncleaved DNA left (log2) [2],uncleaved DNA left (log2) [3],uncleaved DNA left (log2) [4],uncleaved DNA left (log2) [5],uncleaved DNA left (log2) [6],uncleaved DNA left (log2) [7],uncleaved DNA left (log2) [8],uncleaved DNA left (log2) [9],uncleaved DNA left (log2) [10]
ATTGTCA,-0.0286,0.0588,-0.302,-1.1,0.0776,-1.02,-0.122,-0.0848,0.0628,0.0278
CTGGTGC,-0.0504,-0.118,-0.469,-0.503,-0.0914,-0.944,0.0782,-0.0449,-0.0209,-0.163
ATCGCGA,0.0434,-0.0486,-0.769,0.343,0.0896,-0.57,0.116,-0.00115,0.00841,0.00335
AAGTTGC,0.000224,0.0263,-0.714,-0.481,0.0412,-1.2,-0.0212,0.0217,0.061,-0.0596
AAAAGCG,0.108,0.0783,-0.621,0.815,0.192,-0.345,0.204,0.0732,0.101,0.0259
TGCCTAT,0.0635,-0.0911,0.133,-0.36,-0.00537,-0.292,-0.0159,-0.025,0.0592,0.0317
GACCGTA,0.0745,-0.0133,0.0859,-0.000293,0.00575,0.307,0.0428,0.0378,-0.0576,0.00148
TTAACGT,0.0482,-0.0693,-0.142,-0.466,0.0426,-0.332,0.0634,-0.0162,-0.0456,-0.0213
ATCGCAC,0.00966,-0.0375,-0.239,-0.303,0.0651,-0.82,0.0123,0.0019,-0.0164,-0.044
TCTGTGA,0.0607,-0.124,-0.329,-0.692,-0.014,-1.08,-0.038,-0.102,-0.106,-0.187
ACCGTTG,0.142,0.0626,-0.391,-0.321,0.257,-0.696,0.278,0.145,0.25,0.15
GTCATGA,-0.0199,-0.0203,0.228,0.757,-0.0891,1.55,0.00643,0.0233,-0.0469,0.0789
GCGCTCC,0.0115,-0.0476,0.119,0.369,-0.039,0.711,0.00747,0.00968,-0.0329,-0.11
AGGCAGG,0.181,0.0504,0.103,0.477,0.129,-0.00135,0.188,-0.0587,-0.0541,0.00308
TCGCCTC,-0.067,-0.0826,0.143,0.156,-0.094,0.368,-0.0262,0.00809,-0.107,-0.0383
GTACGGA,0.112,0.0512,0.203,0.717,0.067,0.371,0.204,0.131,0.0747,0.109
GAGTCCG,0.122,0.00784,-0.609,-0.512,0.0433,-0.782,-0.41,-0.0497,0.0242,-0.0496
AACTGGT,-0.561,-0.212,0.00634,0.508,-0.0228,1.17,-3.5,-0.0466,0.0572,0.0465
AAATGCG,-0.0521,-0.078,0.102,1.36,0.0238,1.17,0.0668,-0.0413,-0.11,-0.0253
AGCGCAG,0.0153,0.122,0.0466,0.535,-0.031,1.31,0.11,0.14,-0.00909,0.0962

Sequence,uncleaved DNA left (log2) [1],uncleaved DNA left (log2) [2],uncleaved DNA left (log2) [3],uncleaved DNA left (log2) [4],uncleaved DNA left (log2) [5],uncleaved DNA left (log2) [6],uncleaved DNA left (log2) [7],uncleaved DNA left (log2) [8],uncleaved DNA left (log2) [9],uncleaved DNA left (log2) [10]
AGGACCG,-0.039,0.00367,-0.358,-0.0819,-0.0298,-0.569,0.143,0.0302,-0.0636,-0.0725
TTCATCA,0.0256,0.0933,0.436,0.0757,0.00411,0.522,0.0877,0.0992,0.173,0.249
CGGGTGC,-0.0174,0.039,0.00717,0.387,0.0498,0.422,0.12,0.0241,-0.067,0.0901
TAGGAGA,0.0777,0.106,0.333,0.688,-0.0994,0.719,0.0437,0.0862,0.0287,0.0097
AGTATGG,0.103,0.0504,0.0669,0.336,0.0577,-0.33,0.243,0.121,0.121,0.088
ATGAGGG,0.0694,-0.0809,-0.276,-0.0364,0.0607,-0.823,0.227,0.0558,0.0127,-0.00178
GCCACGA,0.033,-0.0553,-0.0063,0.224,-0.0756,-0.563,0.0628,0.00276,0.0128,0.00696
GCGCACG,0.00391,-0.0743,-0.332,-0.233,0.0353,-0.456,0.0783,0.054,-0.0636,-0.137
GTATGTA,0.0201,0.00209,0.328,0.698,0.0715,1.42,-0.012,0.00687,0.0869,0.126
CAGTGGA,0.0523,-0.11,-0.189,-0.206,-0.0674,-0.784,-2.56,0.0457,-0.117,0.0529
CCACAGT,-0.14,-0.209,-0.668,-1.71,-0.0459,-0.881,-0.323,-0.189,-0.161,-0.297
CATAAGA,0.067,0.0831,-0.403,-0.569,0.0888,-1.08,0.141,0.168,0.0798,0.00153
GCTGTTC,-0.0254,0.0766,0.0412,0.203,-0.0289,0.438,-0.0605,-0.0378,0.0184,0.0133
TGGATTA,0.0875,0.111,0.519,0.728,-0.00405,1.4,0.192,0.141,0.171,0.191
TCTTCGC,0.0771,-0.141,-0.54,-0.794,0.0629,-1.09,0.00197,-0.0799,-0.00908,-0.142
TTCCCAA,0.187,0.172,0.313,0.347,0.065,0.315,8.65e-05,0.0903,0.185,0.287
CGATGCC,-0.0651,0.00524,-0.18,0.136,-0.109,-0.223,-0.129,0.0197,0.0377,0.0559
TGTGCAG,-0.132,-0.157,-0.725,-0.516,-0.15,-1,-0.0211,-0.224,-0.0232,-0.286
TGGGGGC,0.0406,0.0352,0.808,1.5,-0.0669,2,0.247,0.0955,-0.0464,0.102
CGTGGCC,-0.104,0.0474,-0.0629,0.349,-0.0383,-0.188,-0.112,-0.0117,-0.117,0.0144
